Measured values reported in the supplement of paper PMC4967469.

Legend:
Assay in all cases: Viability of human cancer cell lines after 72 h of drug (GDSC screen)
XMD14-99 = compound: COc1cc(N2CCN(C)CC2)ccc1Nc1nc(N)c(C(=O)c2c(Cl)cccc2Cl)s1 [XMD14-99]; details: top dose 10.24 µM; top dose inferred
Experimental: (§1)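 Human cancer cell lines in 384-well plates, medium with 10% serum, drug for 72 h over a 256-fold dose range (nine 2-fold or five 4-fold steps up to the top dose). Adherent lines were fixed and stained with the nucleic acid dye Syto60, suspension lines read with resazurin; signal relative to control wells, capped at 0 and 100%. One two-parameter sigmoid per drug and line, fitted in a mixed model over all curves with the slope shared within a line.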

AT-7519 = compound: O=C(NC1CCNCC1)c1n[nH]cc1NC(=O)c1c(Cl)cccc1Cl [AT-7519]; details: top dose 10.24 µM; top dose inferred
Experimental: as §1

Dasatinib = compound: Cc1nc(Nc2ncc(C(=O)Nc3c(C)cccc3Cl)s2)cc(N2CCN(CCO)CC2)n1 [Dasatinib]; details: top dose 1.28 µM
Experimental: as §1

FH535 = compound: Cc1cc([N+](=O)[O-])ccc1NS(=O)(=O)c1cc(Cl)ccc1Cl [FH535]; details: top dose 32 µM; top dose inferred
Experimental: as §1

Sorafenib = compound: CNC(=O)c1cc(Oc2ccc(NC(=O)Nc3ccc(Cl)c(C(F)(F)F)c3)cc2)ccn1 [Sorafenib]; details: top dose 4 µM
Experimental: as §1

A-443654 = compound: Cc1n[nH]c2ccc(-c3cncc(OC[C@@H](N)Cc4c[nH]c5ccccc45)c3)cc12 [A-443654]; details: top dose 1.024 µM; top dose inferred
Experimental: as §1

Cell Line | AUC (XMD14-99) | IC50 (XMD14-99) [µM] | AUC (AT-7519) | IC50 (AT-7519) [nM] | AUC (Dasatinib) | IC50 (Dasatinib) [nM] | AUC (FH535) | IC50 (FH535) [µM] | AUC (Sorafenib) | IC50 (Sorafenib) [µM] | AUC (A-443654) | IC50 (A-443654) [nM]
OCI-AML2 (acute myeloid leukaemia, suspension) | 0.986 | > 10.2 | 0.444 | 469 | 0.981 | > 1280 | 0.566 | 2.89 | 0.742 | 0.988 | 0.64 | 140
EB2 (Burkitt lymphoma, suspension) | 0.933 | > 10.2 | 0.232 | 117 | 0.985 | > 1280 | 0.754 | 9.84 | 0.975 | > 4 | 0.972 | > 1020
HDLM-2 (Hodgkin lymphoma, suspension) | 0.989 | > 10.2 | 0.412 | 369 | 0.989 | > 1280 | 0.697 | 7.06 | 0.961 | > 4 | 0.947 | > 1020
D-502MG (glioma, adherent) | 0.962 | > 10.2 | 0.92 | > 10200 | 0.819 | > 1280 | 0.502 | 2.03 | 0.921 | > 4 | 0.926 | > 1020
TE-12 (oesophagus, suspension) | 0.948 | > 10.2 | 0.777 | 5040 | 0.358 | 29.6 | 0.575 | 3.35 | 0.86 | > 4 | 0.646 | 178
MPP-89 (mesothelioma, adherent) | 0.982 | > 10.2 | 0.95 | > 10200 | 0.428 | 48 | 0.729 | 11.1 | 0.905 | > 4 | 0.805 | 711
UACC-257 (melanoma, adherent) | 0.946 | > 10.2 | 0.879 | > 10200 | 0.938 | > 1280 | 0.608 | 4.25 | 0.88 | > 4 | 0.761 | 448
BE2-M17 (neuroblastoma, adherent) | 0.985 | > 10.2 | 0.861 | 9070 | 0.899 | > 1280 | 0.905 | > 32 | 0.905 | > 4 | 0.771 | 404
MY-M12 (leukaemia, suspension) | 0.947 | > 10.2 | 0.335 | 208 | 0.076 | < 5 | 0.67 | 6.37 | 0.804 | 2.32 | 0.615 | 139
P30-OHK (lymphoblastic leukaemia, suspension) | 0.902 | 9.38 | 0.263 | 155 | 0.99 | > 1280 | 0.788 | 11.6 | 0.95 | > 4 | 0.972 | > 1020
NCI-H748 (small cell lung carcinoma, suspension) | 0.957 | > 10.2 | 0.289 | 136 | 0.971 | > 1280 | 0.952 | > 32 | 0.942 | > 4 | 0.735 | 367
PF-382 (T-cell lymphoblastic leukaemia, suspension) | 0.964 | > 10.2 | 0.251 | 139 | 0.612 | 156 | 0.729 | 8.11 | 0.927 | > 4 | 0.855 | 659
DJM-1 (skin, adherent) | 0.988 | > 10.2 | 0.736 | 3000 | 0.958 | > 1280 | 0.724 | 8.61 | 0.866 | 3.53 | 0.781 | 420
NCI-H1417 (small cell lung carcinoma, suspension) | 0.93 | > 10.2 | 0.433 | 405 | 0.982 | > 1280 | 0.801 | 19.3 | 0.97 | > 4 | 0.804 | 631
EW-13 (Ewing sarcoma, suspension) | 0.913 | > 10.2 | 0.451 | 465 | 0.981 | > 1280 | 0.723 | 9.32 | 0.963 | > 4 | 0.918 | > 1020
EW-3 (Ewing sarcoma, adherent) | 0.953 | > 10.2 | 0.697 | 2490 | 0.984 | > 1280 | 0.856 | 31.9 | 0.934 | > 4 | 0.847 | 925
SW962 (urogenital system, adherent) | 0.975 | > 10.2 | 0.882 | > 10200 | 0.557 | 119 | 0.605 | 4.16 | 0.963 | > 4 | 0.724 | 328
NCI-SNU-5 (stomach, suspension) | 0.989 | > 10.2 | 0.847 | 7690 | 0.989 | > 1280 | 0.893 | > 32 | 0.966 | > 4 | 0.893 | > 1020
OCI-M1 (acute myeloid leukaemia, suspension) | 0.967 | > 10.2 | 0.473 | 549 | 0.989 | > 1280 | 0.609 | 3.69 | 0.903 | 3.03 | 0.902 | 768
KNS-81-FD (glioma, adherent) | 0.975 | > 10.2 | 0.888 | > 10200 | 0.963 | > 1280 | 0.748 | 13.6 | 0.956 | > 4 | 0.898 | > 1020
EW-24 (Ewing sarcoma, semi-adherent) | 0.99 | > 10.2 | 0.988 | > 10200 | 0.846 | 768 | 0.965 | > 32 | 0.968 | > 4 | 0.892 | 951

Cell Line | AUC (XMD14-99) | IC50 (XMD14-99) [µM] | AUC (AT-7519) | IC50 (AT-7519) [nM] | AUC (Dasatinib) | IC50 (Dasatinib) [nM] | AUC (FH535) | IC50 (FH535) [µM] | AUC (Sorafenib) | IC50 (Sorafenib) [µM] | AUC (A-443654) | IC50 (A-443654) [nM]
SIG-M5 (acute myeloid leukaemia, suspension) | 0.907 | 7.7 | 0.267 | 171 | 0.973 | > 1280 | 0.619 | 3.9 | 0.849 | 1.94 | 0.618 | 124
MONO-MAC-6 (acute myeloid leukaemia, suspension) | 0.891 | > 10.2 | 0.272 | 137 | 0.855 | 1110 | 0.656 | 5.59 | 0.195 | 0.029 | 0.531 | 78.2
NCI-H2081 (small cell lung carcinoma, suspension) | 0.989 | > 10.2 | 0.774 | 4240 | 0.982 | > 1280 | 0.933 | > 32 | 0.954 | > 4 | 0.913 | > 1020
K5 (thyroid, adherent) | 0.988 | > 10.2 | 0.814 | 5270 | 0.604 | 152 | 0.629 | 4.47 | 0.964 | > 4 | 0.802 | 478
ROS-50 (B-cell leukaemia, suspension) | 0.961 | > 10.2 | 0.903 | > 10200 | 0.956 | > 1280 | 0.821 | 25.6 | 0.943 | > 4 | 0.895 | > 1020
NCI-H1648 (lung adenocarcinoma, adherent) | 0.955 | > 10.2 | 0.507 | 669 | 0.311 | 22.8 | 0.519 | 2.26 | 0.932 | > 4 | 0.638 | 158
TC-71 (Ewing sarcoma, adherent) | 0.967 | > 10.2 | 0.644 | 1490 | 0.992 | > 1280 | 0.88 | 23.7 | 0.966 | > 4 | 0.875 | 720
WSU-DLCL2 (B-cell lymphoma, suspension) | 0.988 | > 10.2 | 0.741 | 2700 | 0.993 | > 1280 | 0.918 | > 32 | 0.96 | > 4 | 0.842 | 546
MN-60 (B-cell leukaemia, suspension) | 0.937 | > 10.2 | 0.526 | 754 | 0.917 | > 1280 | 0.84 | 23.4 | 0.964 | > 4 | 0.841 | 754
ES7 (Ewing sarcoma, adherent) | 0.849 | 7.98 | 0.37 | 277 | 0.928 | > 1280 | 0.751 | 10.8 | 0.955 | > 4 | 0.927 | > 1020
SUP-T1 (T-cell lymphoblastic leukaemia, suspension) | 0.989 | > 10.2 | 0.316 | 206 | 0.99 | > 1280 | 0.659 | 5.28 | 0.99 | > 4 | 0.99 | > 1020
CESS (acute myeloid leukaemia, suspension) | 0.919 | > 10.2 | 0.362 | 283 | 0.989 | > 1280 | 0.729 | 7.96 | 0.89 | 3.45 | 0.655 | 161
L-1236 (Hodgkin lymphoma, suspension) | 0.989 | > 10.2 | 0.883 | 8040 | 0.992 | > 1280 | 0.89 | 26.7 | 0.939 | > 4 | 0.756 | 302
LB2518-MEL (melanoma, adherent) | 0.985 | > 10.2 | 0.747 | 3430 | 0.604 | 157 | 0.437 | 1.34 | 0.735 | 1.22 | 0.734 | 311
RF-48 (stomach, adherent) | 0.956 | > 10.2 | 0.541 | 837 | 0.844 | 1090 | 0.825 | 22.5 | 0.909 | > 4 | 0.692 | 238
LU-134-A (small cell lung carcinoma, suspension) | 0.986 | > 10.2 | 0.568 | 997 | 0.987 | > 1280 | 0.985 | > 32 | 0.98 | > 4 | 0.735 | 314
ALL-SIL (T-cell leukaemia, suspension) | 0.963 | > 10.2 | 0.208 | 104 | 0.025 | < 5 | 0.57 | 3.02 | 0.77 | 1.32 | 0.721 | 244
SW954 (urogenital system, adherent) | 0.963 | > 10.2 | 0.39 | 319 | 0.505 | 82.7 | 0.692 | 6.96 | 0.877 | > 4 | 0.725 | 282
GRANTA-519 (B-cell lymphoma, suspension) | 0.988 | > 10.2 | 0.512 | 687 | 0.951 | > 1280 | 0.818 | 15.7 | 0.98 | > 4 | 0.781 | 381
LU-139 (small cell lung carcinoma, suspension) | 0.918 | > 10.2 | 0.4 | 315 | 0.982 | > 1280 | 0.756 | 13.9 | 0.9 | > 4 | 0.764 | 477
A4-Fuk (B-cell lymphoma, suspension) | 0.985 | > 10.2 | 0.617 | 1370 | 0.918 | > 1280 | 0.759 | 11.6 | 0.856 | 3.45 | 0.558 | 93

A lower IC50 marks a more sensitive line; a fit beyond the top or the lowest dose is shown as a bound at that dose. For AUC the same curve is integrated over the 256-fold range of doses and scaled to a fraction; values near 1 show little effect. For part of these data: An inferred top dose comes from the curve model; the source does not state it.
